Test results published in the RNAGym collection of RNA variant scans (doi:10.7554/elife.90254).
The source gives no read counts; variants with many changes may rest on few reads.

B1: LINE1-mini (parent)
chain: GGCAGAGCUCAACACAGCGUGGCAAAGUGGCUGUGGCUAGACUGCC

Variants of: B1
Test: self-cleavage, relative activity (ratio to wild type); higher = more cleavage; in vitro, sequencing; the parent is a self-cleaving ribozyme

Question: With G19C U34A U38C C46A as the variant, how does the self-cleavage read?
Answer: Its self-cleavage is 0.07.

Question: For G19U C23A U34G, which self-cleavage is on record?
Answer: The self-cleavage was 0.41.

Question: Which self-cleavage does the source give for G19A C31U G36U here?
Answer: The self-cleavage was 0.02.

Question: For G19U A24G G30A C37G, which self-cleavage is on record?
Answer: Its self-cleavage is 0.06.

Question: With U20G A26G G30A C31G as the variant, how does the self-cleavage read?
Answer: The self-cleavage was 0.02.

Question: Which self-cleavage does the source give for C18U U20A A24U here?
Answer: Its self-cleavage is 1.4.

Question: Which self-cleavage does the source give for G19U C23G A25U G40A here?
Answer: Its self-cleavage is 0.02.

Question: With U20A A25G U38G C45G as the variant, how does the self-cleavage read?
Answer: The self-cleavage was 0.

Question: With U20C G30U G35C A39C as the variant, how does the self-cleavage read?
Answer: Its self-cleavage is 0.02.

Question: Which self-cleavage does the source give for U20C U38A C42U here?
Answer: Its self-cleavage is 0.23.

Question: Which self-cleavage does the source give for C18U G29A C37G here?
Answer: The self-cleavage was 0.04.

Question: For U20C U28A C31G A39U U43A, which self-cleavage is on record?
Answer: Its self-cleavage is 0.02.

Question: Which self-cleavage does the source give for C18U G29U U38G here?
Answer: The self-cleavage was 0.45.

Question: Which self-cleavage does the source give for G19U G21A U34C here?
Answer: The self-cleavage was 0.23.

Question: For G19A A24G C46U, which self-cleavage is on record?
Answer: Its self-cleavage is 1.66.

Question: With G19C C23U C46A as the variant, how does the self-cleavage read?
Answer: The self-cleavage was 1.29.

Question: For G19C G29C G30U G40C A41C, which self-cleavage is on record?
Answer: Its self-cleavage is 0.08.

Question: Which self-cleavage does the source give for G19U C23U C31A here?
Answer: The self-cleavage was 0.87.

Question: With C18U C42A C46A as the variant, how does the self-cleavage read?
Answer: The self-cleavage was 0.01.

Question: Which self-cleavage does the source give for C18U G36C A41C U43C C46U here?
Answer: The self-cleavage was 0.05.

Question: Which self-cleavage does the source give for G19C G33U C46U here?
Answer: The self-cleavage was 0.4.

Question: For C18U U20G C42A, which self-cleavage is on record?
Answer: The self-cleavage was 0.03.

Question: For G19C U34C C37U, which self-cleavage is on record?
Answer: Its self-cleavage is 0.02.

Question: Which self-cleavage does the source give for G19U G33U U38C A39G here?
Answer: The self-cleavage was 0.02.

Question: Which self-cleavage does the source give for G19A G27A A39C here?
Answer: The self-cleavage was 0.08.

Question: Which self-cleavage does the source give for U20A G30A U32C here?
Answer: Its self-cleavage is 0.05.

Question: With G19U A25C G27U C37A as the variant, how does the self-cleavage read?
Answer: The self-cleavage was 0.01.

Question: With U20C G22A C31A U32C U34C as the variant, how does the self-cleavage read?
Answer: The self-cleavage was 0.04.

Question: For U20G A26C A41G, which self-cleavage is on record?
Answer: The self-cleavage was 0.09.

Question: For C18U U20C C31U, which self-cleavage is on record?
Answer: The self-cleavage was 0.12.

Question: With U20A G30C A39U as the variant, how does the self-cleavage read?
Answer: The self-cleavage was 0.71.

Question: With U20A A24U A25C C46G as the variant, how does the self-cleavage read?
Answer: The self-cleavage was 0.03.

Question: For G19C A26U U43G, which self-cleavage is on record?
Answer: The self-cleavage was 0.03.

Question: With C18U G19C C23U as the variant, how does the self-cleavage read?
Answer: Its self-cleavage is 0.46.

Question: For G19C G22U G33U G44A, which self-cleavage is on record?
Answer: The self-cleavage was 0.22.

Question: Which self-cleavage does the source give for U20C A25U G29C A39U here?
Answer: Its self-cleavage is 0.23.

Question: For G19U A25G G36A, which self-cleavage is on record?
Answer: Its self-cleavage is 0.14.

Question: With G19U A26U U38G G40C as the variant, how does the self-cleavage read?
Answer: The self-cleavage was 0.

Question: With U20A A25C G36C C42G as the variant, how does the self-cleavage read?
Answer: Its self-cleavage is 0.

Question: For C18U U20C C37G, which self-cleavage is on record?
Answer: Its self-cleavage is 0.04.

Question: Which self-cleavage does the source give for U20A G22U C31U U38G here?
Answer: Its self-cleavage is 0.01.

Question: For U20G C31U C37G U43G, which self-cleavage is on record?
Answer: Its self-cleavage is 0.

Question: With U20A A25C U32C as the variant, how does the self-cleavage read?
Answer: Its self-cleavage is 0.03.

Question: With U20C C37A C45A as the variant, how does the self-cleavage read?
Answer: The self-cleavage was 0.25.

Question: With C18U U28A C45G as the variant, how does the self-cleavage read?
Answer: The self-cleavage was 0.11.

Question: With G19U G21U A24U G33C as the variant, how does the self-cleavage read?
Answer: Its self-cleavage is 0.1.

Question: For U20A G21U G30A C31A G36A, which self-cleavage is on record?
Answer: The self-cleavage was 0.03.

Question: Which self-cleavage does the source give for U20G C23U U32G A39C C42G here?
Answer: Its self-cleavage is 0.04.

Question: Which self-cleavage does the source give for U20A U28C G35U here?
Answer: The self-cleavage was 0.07.

Question: With G19A A25G A41C G44C as the variant, how does the self-cleavage read?
Answer: The self-cleavage was 0.07.

Question: With U20G A25C G30A as the variant, how does the self-cleavage read?
Answer: Its self-cleavage is 0.09.

Question: Which self-cleavage does the source give for G19C G36U U38A here?
Answer: The self-cleavage was 0.01.

Question: Which self-cleavage does the source give for G19C A24C G40C C45A here?
Answer: Its self-cleavage is 0.02.

Question: For U20G A41C U43G, which self-cleavage is on record?
Answer: Its self-cleavage is 0.02.

Question: Which self-cleavage does the source give for G19A G29U C31A C37U here?
Answer: Its self-cleavage is 0.05.

Question: Which self-cleavage does the source give for U20G C37A G44A here?
Answer: The self-cleavage was 0.07.

Question: With G19U A25U G27C as the variant, how does the self-cleavage read?
Answer: Its self-cleavage is 0.5.

Question: Which self-cleavage does the source give for G19A A25C G40A here?
Answer: The self-cleavage was 0.19.

Question: Which self-cleavage does the source give for U20A G29A G36U here?
Answer: The self-cleavage was 0.11.

Question: For U20A A39G U43A, which self-cleavage is on record?
Answer: The self-cleavage was 0.02.

Question: With G19C G40A U43G as the variant, how does the self-cleavage read?
Answer: The self-cleavage was 0.01.

Question: For U20G C37A C46U, which self-cleavage is on record?
Answer: The self-cleavage was 0.03.

Question: With G19A G22U C23U U38A C46A as the variant, how does the self-cleavage read?
Answer: Its self-cleavage is 0.1.

Question: Which self-cleavage does the source give for U20C A26G U32G U34G G36C here?
Answer: Its self-cleavage is 0.01.

Question: Which self-cleavage does the source give for C18U G30U G44C here?
Answer: The self-cleavage was 0.16.

Question: With G19A A25U A39G as the variant, how does the self-cleavage read?
Answer: The self-cleavage was 0.03.

Question: Which self-cleavage does the source give for C18U U28G G29A here?
Answer: Its self-cleavage is 0.77.

Question: For G19A C23U C42A, which self-cleavage is on record?
Answer: The self-cleavage was 0.08.

Question: Which self-cleavage does the source give for U20G C23U A26G C42U here?
Answer: The self-cleavage was 0.14.

Question: Which self-cleavage does the source give for G19C G21U C42U here?
Answer: Its self-cleavage is 0.21.

Question: For G19U A39C C42G, which self-cleavage is on record?
Answer: Its self-cleavage is 0.13.

Question: Which self-cleavage does the source give for G19U C23G G40U here?
Answer: Its self-cleavage is 0.09.

Question: With G19U G27U C31A G44C C46A as the variant, how does the self-cleavage read?
Answer: The self-cleavage was 0.

Question: Which self-cleavage does the source give for G19U C23U G30U G36C G40C here?
Answer: Its self-cleavage is 0.05.

Question: With G19U G36C A39G as the variant, how does the self-cleavage read?
Answer: Its self-cleavage is 0.04.

Question: Which self-cleavage does the source give for G19A G21A A24G here?
Answer: Its self-cleavage is 1.77.

Question: Which self-cleavage does the source give for U20A C23A U34C A41G here?
Answer: Its self-cleavage is 0.07.

Question: With G19U G21A C31U C37A as the variant, how does the self-cleavage read?
Answer: Its self-cleavage is 0.09.

Question: With U20C A25G C37A C46U as the variant, how does the self-cleavage read?
Answer: Its self-cleavage is 0.04.

Question: With U20A G36C U38G as the variant, how does the self-cleavage read?
Answer: The self-cleavage was 0.02.

Question: For G19C U32G U43A, which self-cleavage is on record?
Answer: Its self-cleavage is 0.11.

Question: With C18U G29U C31U G33C G35A A41U as the variant, how does the self-cleavage read?
Answer: Its self-cleavage is 0.02.

Question: With G19C G36C G40U C45A as the variant, how does the self-cleavage read?
Answer: Its self-cleavage is 0.05.
